What all share (assay): cell count relative to DMSO control; melanoma cells; higher = more viable cells
What all share (settings): library dose: standard library concentration; 72 h

Test [1] has as its system G361.
For test [2], the system named is IPC-298.
Test [3] concerns IST-MEL1.
Test [4] concerns LB2518-MEL.
In test [5] the test system is LOXIMVI.
Test [6] concerns MEL-HO.
Test [7] deals with MZ2-MEL.
Test [8] concerns MeWo.
Test [9] deals with RPMI7951.
Test [10] concerns RVH-421.

The list shows a part of the results. Single values are uncertain, as repeats are few or missing.
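Also: cells treated in 1,536-well plates, then fixed and DAPI-stained, with nuclei counted from automated high-throughput microscope images.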

Turning to `C[C@]1(O)C[C@@H](c2nc(-c3ccc4ccc(-c5ccccc5)nc4c3)c3c(N)nccn32)C1` + COC(=O)c1sccc1S(=O)(=O)Nc1ccc(Nc2ccccc2)cc1OC [GSK0660] (first compound 2 µM, partner dose 5 µM), the cell count in [1] stood at 80.9%; in test [2], 79.7%; in test [3], 89.3%; in [4], 98%; in test [5], 89.2%; in test [6], 84%. In addition, the cell count in test [7] was 83.7%; in test [8], 76.3%; in test [9], 76.7%; in test [10], 91.3%.
For the molecule `Cn1cnc2c(F)c(Nc3ccc(Br)cc3Cl)c(C(=O)NOCCO)cc21` [selumetinib] + CC(C)(C)c1cnc(CSc2cnc(NC(=O)C3CCNCC3)s2)o1 [SNS-032] (first compound 0.075 µM, partner dose 0.05 µM), the cell count was 56.5% in test [1]; 62.3% in test [2]; 83.7% in [3]; 40% in [4]; 76.5% in test [5]; 74.7% in test [6]. Moreover, the cell count in test [7] is 47.2%; in [8] it was 68.7%; in test [9], 45.8%; in [10], 64.2%.
As for `CCN(CC)CCNC(=O)c1c(C)[nH]c(/C=C2\C(=O)Nc3ccc(F)cc32)c1C` [sunitinib] + Nc1ccn([C@@H]2O[C@H](CO)[C@@H](O)C2(F)F)c(=O)n1 [gemcitabine] (first compound 2 µM, partner dose 0.002 µM), the cell count turned out to be 49.7% in [1]; 39.4% in [2]; 45.6% in [3]; 45.9% in [4]; 155% in test [5]; 70.8% in test [6]. The cell count amounted to 67.8% in test [7], 32% in test [8], 68.9% in test [9] and 55.7% in test [10].
Consider `C[C@]1(O)C[C@@H](c2nc(-c3ccc4ccc(-c5ccccc5)nc4c3)c3c(N)nccn32)C1` + C=C(c1ccc(C(=O)O)cc1)c1cc2c(cc1C)C(C)(C)CCC2(C)C [Bexarotene] (first compound 2 µM, partner dose 10 µM), for which the cell count in test [1] came to 58.5%; in test [2] it was 74.9%; in test [3], 82.9%; in test [4], 78.9%; in test [5] it was 103%; in [6] it was 78.6%. The cell count in test [7] is 70.9%; in [8], 83.1%; in test [9], 51%; in test [10], 87.8%.
Regarding `Cn1cnc2c(F)c(Nc3ccc(Br)cc3Cl)c(C(=O)NOCCO)cc21` [selumetinib] + C[C@]1(O)C[C@@H](c2nc(-c3ccc4ccc(-c5ccccc5)nc4c3)c3c(N)nccn32)C1 [OSI906] (first compound 0.075 µM, partner dose 2 µM), the cell count was determined as 55.8% in test [1]; 48.1% in test [2]; 74.8% in test [3]; 24.5% in [4]; 99.8% in test [5]; 69.3% in [6]. Further, the cell count in test [7] stood at 43.6%; in [8] it was 56.7%; in test [9], 86.9%; in [10], 66.9%.
On to `CCN(CC)CCNC(=O)c1c(C)[nH]c(/C=C2\C(=O)Nc3ccc(F)cc32)c1C` [sunitinib] + COc1ccc(COc2ccc(Cc3cnc(N)nc3N)cc2OC)cc1 [GW2580] (first compound 2 µM, partner dose 5 µM), for which the cell count in [1] came to 31.1%; in [2], 64.7%; in [3] it was 86.7%; in test [4] it was 66.7%; in test [5] it was 112%; in test [6], 77.3%. In addition, the cell count in test [7] was determined as 72.9%; in test [8], 50.1%; in test [9], 58%; in test [10] it was 76.3%.
On to `Cn1cnc2c(F)c(Nc3ccc(Br)cc3Cl)c(C(=O)NOCCO)cc21` [selumetinib] + O=S(=O)(c1ccccc1)N(CC(F)(F)F)c1ccc(C(O)(C(F)(F)F)C(F)(F)F)cc1 [T0901317] (first compound 0.075 µM, partner dose 7 µM), for which the cell count in test [1] was 52.8%; in [2], 43.2%; in [3] it was 85.2%; in [4] it was 56.5%; in test [5] it was 90.7%; in test [6], 78.9%. The cell count was 64.6% in test [7], 65.3% in [8], 108% in test [9] and 64.3% in test [10].
`COc1cc([C@@H]2c3cc4c(cc3[C@@H](O[C@@H]3O[C@@H]5CO[C@@H](C)O[C@H]5[C@H](O)[C@H]3O)[C@H]3COC(=O)[C@H]23)OCO4)cc(OC)c1O` [etoposide] + CN(NC(=O)CC(=O)NN(C)C(=S)c1ccccc1)C(=S)c1ccccc1 [STA4783] (first compound 0.1 µM, partner dose 0.03 µM): the cell count in test [1] was determined as 39.5%; in test [2] it was 68.5%; in test [3], 35.5%; in [4], 26%; in test [5] it was 61.5%; in test [6] it was 86.8%. Further, the cell count is 97.8% in test [7], 18.5% in test [8], 77.8% in [9] and 67% in test [10].
On to `CCN(CC)CCNC(=O)c1c(C)[nH]c(/C=C2\C(=O)Nc3ccc(F)cc32)c1C` [sunitinib] + O=C(O)c1ccc2c(c1)nc(Nc1cccc(Cl)c1)c1ccncc12 [CX4945] (first compound 2 µM, partner dose 2 µM), for which the cell count in test [1] came out at 39.8%; in test [2], 58.8%; in test [3], 80.3%; in test [4], 83.3%; in [5], 88.9%; in test [6], 57.9%. The cell count in [7] was 102%; in test [8], 67.9%; in test [9], 60.7%; in [10], 104%.
With `C[C@]1(O)C[C@@H](c2nc(-c3ccc4ccc(-c5ccccc5)nc4c3)c3c(N)nccn32)C1` + O=C(O)c1ccc(-c2c[nH]c3ncc(-c4ccccc4)cc23)cc1C1CCCC1 [GSK650394] (first compound 2 µM, partner dose 0.8 µM), the cell count stood at 71.8% in test [1]; 91.4% in test [2]; 85.6% in test [3]; 92.5% in test [4]; 101% in test [5]; 84.1% in [6]. The cell count is 114% in test [7], 71.2% in [8], 92.3% in [9] and 92.2% in test [10].
Turning to `COc1cc([C@@H]2c3cc4c(cc3[C@@H](O[C@@H]3O[C@@H]5CO[C@@H](C)O[C@H]5[C@H](O)[C@H]3O)[C@H]3COC(=O)[C@H]23)OCO4)cc(OC)c1O` [etoposide] + C#Cc1cccc(Nc2ncnc3cc(OCCOC)c(OCCOC)cc23)c1 [erlotinib] (first compound 0.1 µM, partner dose 4 µM), the cell count in test [1] came to 64.9%; in test [2], 41.9%; in test [3] it was 87.2%; in test [4] it was 49%; in test [5], 94.1%; in [6], 79.7%. Also, the cell count in [7] is 57.5%; in test [8], 68.3%; in test [9] it was 65.8%; in test [10] it was 61.5%.

For the origin of these results see the supplement of paper PMC4604168 (melanoma cell lines).
